For 86 molecules, TGI and GI50 results are on record in PubChem BioAssay (NCI).

Molecules are shown by their SMILES. “And” between values parts separate entries of the source, which are not always exact repeats. Equal values may be shown once.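 Results reflect a 48-hour exposure of cells in 96-well plates to compound at five concentrations. GI50 marks 50% less growth. The concentration for full growth arrest is given as TGI.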

In this assay the test system is NCI-H322M lung. Briefly: NCI tumour cell line growth inhibition, 48 h.
In the case of `Cc1nc(C(N)=S)sc1/C(CC(=O)C(=O)Nc1cccc2ccc(O)cc12)=N\NC(=O)c1ccncc1`, the TGI was above 100 µM.
On the same count and under the same terms, in the case of `Brc1ccc(N=c2nc3ccccn3n3nc(-c4ccccc4)cc23)cc1` it was above 100 µM.
As for `CC(C)CC(=O)OC[n+]1ccc(-c2c(COC(=O)NC(C)C)c(COC(=O)NC(C)C)c3n2CCC3)cc1`, the TGI was above 100 µM.
On the same count and under the same terms, in the case of `CC12CCC(O)CC1CCC1C2CCC2(C)C(C3=CC(=O)OC3)CCC12O` (centres undefined) it was 15.6 µM.
In the case of `COC(CN1C(=O)c2cccc3cccc(c23)C1=O)OC`, the TGI was above 100 µM.
The molecule `N#CC(c1ccc(Cl)cc1)c1cccc(C(C#N)c2ccc(Cl)cc2)n1` (centres undefined) displayed a TGI above 100 µM.
`O=C1C2C(C(=O)N1OS(=O)(=O)c1ccccc1)N(Cc1ccccc1)C(=O)N2Cc1ccccc1` (centres undefined) had a TGI above 100 µM.
The molecule `CC1=C(C)[C@@]2(C)O[C@@]2(C)O[C@@]2(C)O[C@@]12C` yielded a TGI above 100 µM.
Consider `CCOC(=O)Nn1c(C)nnc1-c1ccccc1`, for which the TGI was above 100 µM.
As for `Cc1cc(C)nc(NS(=O)(=O)c2ccc(NC(=O)c3ccc(Cl)c4c(Nc5ccc(S(=O)(=O)Nc6nc(C)cc(C)n6)cc5)c5ccccc5nc34)cc2)n1`, the TGI was found to be 10.8 µM.
The same measure, in the same setting: in the case of `NC(=O)C(c1ccccc1)N1OC2C(=O)N(c3ccccc3)C(=O)C2C1c1c2ccccc2c(Cl)c2ccccc12` (centres undefined) it was above 100 µM; in that of `COC(=O)C1CCC(=O)N1C(c1ccccc1)c1ccc(OC)c(OC)c1` (centres undefined), above 100 µM.
Take `CC(=O)Nc1ccc(-c2nnc(SCC(=O)Nc3ccc([N+](=O)[O-])cc3)o2)cc1`: the TGI came to 54.9 µM.
For `O=C(/C=C/C12c3ccccc3C(c3ccccc31)C1C(=O)NC(=O)C12)c1ccncc1` (centres undefined), the GI50 was 3.09 µM and the TGI is 10.7 µM.
On to `CC(C)CCCCCCCCCCCCC(=O)NCC(=O)NC1C(C)OC(Nc2ncnc3c2ncn3C)C(O)C1O` (centres undefined), for which the TGI was above 100 µM.
Consider `CCC12C=CCN3CCC4(C(=C(C(=O)OC)[C@@H]1O)Nc1ccccc14)C32` (some centres undefined), for which the TGI was 6.88 µM.
Consider `O=C(Nc1ccc(Cl)c(Cl)c1)Nc1ccc(Cl)c(Cl)c1`, for which the GI50 is 2.96 µM and 3.46 µM; the TGI is 14.9 µM and 16.6 µM.
In turn, `COc1cc(/C=C/C(=N\NS(=O)(=O)c2ccc(C)cc2)c2sc(NNC(C)=O)nc2C)ccc1O` showed a TGI above 100 µM.
With `CCCCCN(CCCCC)CC(O)c1cc(C)c2ccc3cc(C(C)C)ccc3c2c1` (centres undefined), the GI50 is 1.76 µM and the TGI stood at 3.23 µM.
In turn, `C=C(Br)C(C)(Cl)CCC(Br)C(C)(C)Cl` (centres undefined) gave a TGI above 100 µM.
Regarding `COc1ccc(C(OCC2OC(n3cc(C)c(=O)[nH]c3=O)CC2n2cc(Cn3cc(I)c(=O)[nH]c3=O)nn2)(c2ccccc2)c2ccccc2)cc1` (centres undefined), the TGI is above 100 µM.
`N=c1n(C(=O)N2CCCC2)c2cc(Cl)ccc2n1C1=NCCN1` registered a TGI above 100 µM.
`CNC(=O)C(C)C1CCC2(C)C=CC(=O)C(C)=C2C1O` (centres undefined) displayed a TGI above 100 µM.
`Cc1coc2c1CC1(C)C(CCC(O)C1C)C2` (centres undefined): the TGI was above 100 µM.
On the same count and under the same terms, in the case of `Oc1cccc2c(Cl)ccnc12` it was 81.3 µM; in that of `C[C@@]12C[C@@H](c3ccccc3O1)N1CCCCSC1=N2`, above 100 µM; in that of `O=[N+]([O-])/C(C(Cl)=C(Cl)Cl)=C(\SCc1ccccc1)N1CCCCC1`, above 100 µM.
Same read-out and setting: in the case of `N#CN=C(N(Cc1ccccc1)Cc1ccccc1)N(Cc1ccccc1)Cc1ccccc1` it was above 100 µM; in that of `O=C1C(=O)N(c2ccc(Cl)cc2Cl)C(=O)C(=O)C1c1nc2ccccc2s1`, above 100 µM.
For `COc1cc(Cc2cnc(/N=C3\C(=O)N(CN4CCN(c5c(F)cc6c(=O)c(C(=O)O)cn(C7CC7)c6c5OC)CC4C)c4ccc(F)cc43)nc2N)cc(OC)c1OC` (centres undefined), the GI50 was 11.7 µM and the TGI came to 26.7 µM.
As to `O=c1[nH]cc(N=Cc2cc(Cl)cc(Cl)c2O)c(=O)[nH]1`, the TGI turned out to be 64.4 µM.
`CCCCCCCCCCCCCCCCCC(CCCCCCCCCCCCCCCCC)OP(=O)(O)O` yielded a TGI above 100 µM.
For `Cn1cc(C2=C(c3cn(C)c4ncccc34)C(=O)NC2=O)c2ccccc21`, the GI50 was 12.5 µM and the TGI is above 25 µM.
As for `COc1cc(/C=C2\S/C(=N/Nc3nc(-c4ccc(Br)cc4)cs3)NC2=O)cc(OC)c1OC`, the TGI was 82.8 µM.
Still for that read-out and setting: with `CCOc1ccc(NC(=O)C(=O)CC(=O)c2c[n+](=O)c3cc(C)c(C)cc3n2[O-])cc1` the figure was above 100 µM; with `O=C(O)c1ccccc1[Se][Se]c1ccccc1C(=O)O`, above 100 µM.
`CC1(c2ccc(F)cc2)C(C#N)C(=O)NC(=O)C1C#N` (centres undefined) had a TGI above 100 µM.
With `NNC(=O)Nc1cccnc1`, the TGI was above 100 µM.
`O=CC[C@H]1C(=O)C[C@@H]2CCC[C@@H]21`: the TGI was above 100 µM.
Still for that read-out and setting: in the case of `O=C(COc1ccc(Br)cc1Br)N1N=C(c2ccc([N+](=O)[O-])o2)CC1(O)c1ccccc1` (centres undefined) it was 43.3 µM.
For the molecule `CCOC(=O)c1c2ccccc2n2c(N)c(C(N)=O)nnc12`, the TGI was above 100 µM.
The molecule `Clc1cc(OC2C3CC4CC(C3)CC2C4)nc(Cl)n1` (centres undefined) gave a TGI of 34.5 µM.
As to `COC(=O)[C@H](Cc1c[nH]c2ccccc12)NP(=O)(O)OCC1C=CC(n2cc(C)c(=O)[nH]c2=O)O1` (some centres undefined), the TGI is above 100 µM.
Take `COc1cc(/C=N/NC(=O)c2ccc(C(F)(F)F)nc2Nc2ccc(Cl)cc2C)ccc1O`: the GI50 is 1.49 µM and the TGI turned out to be 13.7 µM.
Take `COc1ccc(/C=C2\CCC(C)C3=C2NC(=S)NC3c2ccc(OC)c(OC)c2)cc1OC` (centres undefined): the TGI is above 31.6 µM.
`O=C(/C=C/c1ccccc1)NC1C=Nc2ccc(Cl)cc2NC1=O` (centres undefined) yielded a TGI above 100 µM.
`CCOC(=O)C(NC(C)=O)(Nc1ccc(F)cc1)C(F)(F)F` (centres undefined) displayed a TGI above 100 µM.
In turn, `CC(=O)NNc1nc(C)c(C(=O)NNC(=O)C(=O)Nc2ccc(Cl)cc2)s1` had a TGI above 100 µM.
`CCN(CCO)CC1CCCC2CCCCC21` (centres undefined) came in with a TGI above 100 µM.
As for `COc1ccccc1C12OC(=O)C1(C)Oc1ccccc1C2=O` (centres undefined), the TGI was above 100 µM.
On the same count and under the same terms, in the case of `COC1(OC)CCC2C1C1CCC(OC)(OC)C21` (centres undefined) it was above 50 µM.
Consider `NC(Cc1c[nH]c2c(O)cccc12)C(=O)O` (centres undefined), for which the GI50 was above 100 µM and the TGI is above 100 µM.
On to `CC[C@@]1(C[C@H]2C[C@@]3(C(=O)OC)c4[nH]c5ccccc5c4CCN3C2=O)COC2(CCCCC2)O1`, for which the TGI was above 100 µM.
For `Clc1ccc(/C=C/c2nc3ccccc3s2)cc1Cl`, the TGI was above 100 µM.
Turning to `Clc1ccc2c(NCCCCNc3nc(N4CCCCC4)nc4ccccc34)ccnc2c1`, the GI50 is 1.96 µM and the TGI worked out at 7.42 µM.
As to `CC(C)/C(Cl)=N\OC(=O)Nc1ccc(S(N)(=O)=O)cc1`, the TGI amounted to 28.9 µM.
As to `COC1=CC(=O)c2nc(-c3ccncc3)[nH]c2C1=O`, the GI50 is above 100 µM and the TGI is above 100 µM.
`COC(=O)[C@H]1CO[C@@H](C(C)(C)C)N1C(=O)N1C=CC(=O)C[C@@H]1C`: the TGI was above 100 µM.
As for `O=C1C(Cl)=C(Nc2cccc(Cl)c2)C(=O)N1Cc1ccc(Cl)cc1Cl`, the GI50 was 8.55 µM and the TGI was 40.4 µM.
Take `O=C(O)c1cccc2c1/C(=N/Nc1ccccc1)CC2`: the TGI was above 100 µM.
With `NC(=O)c1cccc2cn(-c3ccc([C@@H]4CCCNC4)cc3)nc12`, the GI50 was 22.1 µM and the TGI turned out to be 62.5 µM.
As to `CC(N)Cc1ccc(C(=O)Cl)cc1` (centres undefined), the TGI was above 100 µM.
On to `CCCCCN(CCCCC)CCCNc1c2c(nc3ccc(Cl)cc13)CCCC2`, for which the GI50 is 4.4 µM and the TGI was 16.7 µM.
On to `OCc1ccc(N2CCC2c2ccc(F)cc2)cc1Cl` (centres undefined), for which the GI50 was 21.3 µM and the TGI is above 70.8 µM.
Regarding `N#CC1C(C#N)C2(c3ccccc3)C(c3ccccc3)=NN(c3ccccc3)CC12` (centres undefined), the TGI was above 100 µM.
The same measure, in the same setting: with `COC(=O)CC1CCN(C#N)CC1CC[N+](=O)[O-]` (centres undefined) the figure was above 100 µM; with `Oc1cc2c3c(c1)c1cc4c(cc1c[n+]3CC2)OCO4`, above 54.3 µM.
As to `[N-]=[N+]=Nc1cc(=O)oc2ccccc12`, the TGI was above 100 µM.
`CC/C=C\CCC/C=C1/C(=O)C=C[C@@H]1C/C=C\CCCC(=O)OC`: the GI50 was 3.6 µM and the TGI was 15.1 µM.
The molecule `CC(C)C/C(CC(=O)CCC(=O)Nc1ccccc1[N+](=O)[O-])=N\NC(=O)c1cc2ccccc2cc1O` came in with a TGI above 100 µM.
On the same count and under the same terms, in the case of `N#CC1=C(N)N(c2ccccc2)C(c2ccco2)C1(C#N)C#N` (centres undefined) it was 41.8 µM; in that of `Cc1cc(N(CCC#N)CCC#N)ccc1/C(N=Nc1ccc(Cl)cc1)=N\NC(=O)c1ccccc1`, above 100 µM.
In the case of `O=C1CC(c2ccc3c(c2)OCO3)Nc2ccccc21` (centres undefined), the GI50 was 11.4 µM and the TGI is 26.1 µM.
With `O=C(Nc1ccccc1)NS(=O)(=O)c1ccc(-n2nc3c(c2-c2cccs2)Cc2ccccc2-3)cc1`, the GI50 was 4.5 µM and the TGI is 47 µM.
As for `COC1CCC2C(NS(=O)(=O)c3ccc(C)cc3)CCCC2O1` (centres undefined) (tested in a mixture with another compound), the TGI was above 34.5 µM.
With `O=C(Nc1ccc(C2=NCCN2)cc1)c1cncc(C(=O)Nc2ccc(C3=NCCN3)cc2)c1`, the TGI is above 100 µM.
Molecule `Nc1cccc2cc(Cl)cnc12` displayed a TGI above 100 µM.
`CC1=C(C(=O)NCc2ccccc2)C(/C=C/c2ccccc2)C(C(=O)NCc2ccccc2)=C(C)N1` displayed a TGI above 100 µM.
`CCCCOC(=O)C1OC(O[C@H]2CCC3(C)C(CCC4(C)C3CC=C3C5CC(C)(C)CCC5(C(=O)O)CC[C@]34C)C2(C)C)C(OC2OC(CO)C(O)C(O)C2O)C(OC2OC(CO)C(O)C(O)C2O)C1O` (some centres undefined): the GI50 is 19 µM and the TGI stood at 49.2 µM.
Molecule `CN1C(=O)C(C)(C)C2(SC(C)(C)C2(C)C)N(C)C1=S` (centres undefined) returned a TGI above 100 µM.
For `COc1ccc2c(=O)c(O)c(-c3ccc(OC)c(OC)c3)oc2c1`, the TGI was above 100 µM.
On the same count and under the same terms, in the case of `Nc1ccccc1SC(C[N+](=O)[O-])c1ccc2c(c1)OCO2` (centres undefined) it was 22.8 µM; in that of `CN1CCN([C@H]2C[C@H]3[C@@H]4CC=C5C[C@@H](O)CC[C@]5(C)[C@H]4CC[C@]3(C)C2=O)CC1`, above 100 µM; in that of `O=S1(=O)c2ccccc2NC(c2ccc3ccccc3c2)CC1c1ccccc1F` (centres undefined), above 100 µM.
In the case of `COc1ccc2c(C3=C(c4cn(C)c5ccccc45)C(=O)NC3=O)cn(C)c2c1`, the GI50 was 0.328 µM and the TGI was above 25 µM.
Regarding `N#CCCN(CCC#N)c1ccc(/C=C2\N=C(c3cc([N+](=O)[O-])ccc3Cl)OC2=O)cc1`, the TGI was above 100 µM.
